Experimental data reported in publication PMC9911399, “Two distinct binding modes provide the RNA-binding protein RbFox with extraordinary sequence specificity”.
Where a chain is given by its changes, count along the chain named. The list shows a part of the results.

B1: ACGGGCC (DNA:RNA)
RNA: GGGAGACCGGAAUUCAGAUUGUCCACGGGCCUUAAAUCCCGUCGUAGCCACCA
DNA 1: CAATCTGAATTCCGGTCTCCC
DNA 2: TGGTGGCTACGACGGGATT
B2: UCGGCUG (DNA:RNA)
RNA: B1 RNA with A25U, G29C, C30U, C31G
DNA 1: CAATCTGAATTCCGGTCTCCC
DNA 2: TGGTGGCTACGACGGGATT
B3: UACAGCG (DNA:RNA)
RNA: B1 RNA with A25U, C26A, G27C, G28A, C31G
DNA 1: CAATCTGAATTCCGGTCTCCC
DNA 2: TGGTGGCTACGACGGGATT
B4: GUCUUUG (DNA:RNA)
RNA: GGGAGACCGGAAUUCAGAUUGUCCGUCUUUGUUAAAUCCCGUCGUAGCCACCA
DNA 1: CAATCTGAATTCCGGTCTCCC
DNA 2: TGGTGGCTACGACGGGATT
B5: GUUAUGG (DNA:RNA)
RNA: B4 RNA with C27U, U28A, U30G
DNA 1: CAATCTGAATTCCGGTCTCCC
DNA 2: TGGTGGCTACGACGGGATT
B6: UCUUCUA (DNA:RNA)
RNA: B4 RNA with G25U, U26C, C27U, U29C, G31A
DNA 1: CAATCTGAATTCCGGTCTCCC
DNA 2: TGGTGGCTACGACGGGATT
B7: GCUGUGA (DNA:RNA)
RNA: B1 RNA with A25G, G27U, G29U, C30G, C31A
DNA 1: CAATCTGAATTCCGGTCTCCC
DNA 2: TGGTGGCTACGACGGGATT
B8: CAAGUCA (DNA:RNA)
RNA: B1 RNA with A25C, C26A, G27A, G29U, C31A
DNA 1: CAATCTGAATTCCGGTCTCCC
DNA 2: TGGTGGCTACGACGGGATT
B9: CUCUGCG (DNA:RNA)
RNA: B4 RNA with G25C, U29G, U30C
DNA 1: CAATCTGAATTCCGGTCTCCC
DNA 2: TGGTGGCTACGACGGGATT
B10: GUAUAAC (DNA:RNA)
RNA: B4 RNA with C27A, U29A, U30A, G31C
DNA 1: CAATCTGAATTCCGGTCTCCC
DNA 2: TGGTGGCTACGACGGGATT
B11: GCUAACC (DNA:RNA)
RNA: B1 RNA with A25G, G27U, G28A, G29A
DNA 1: CAATCTGAATTCCGGTCTCCC
DNA 2: TGGTGGCTACGACGGGATT
B12: CUUUGAC (DNA:RNA)
RNA: B1 RNA with A25C, C26U, G27U, G28U, C30A
DNA 1: CAATCTGAATTCCGGTCTCCC
DNA 2: TGGTGGCTACGACGGGATT
B13: CCUAAGC (DNA:RNA)
RNA: B1 RNA with A25C, G27U, G28A, G29A, C30G
DNA 1: CAATCTGAATTCCGGTCTCCC
DNA 2: TGGTGGCTACGACGGGATT
B14: CUUUUAU (DNA:RNA)
RNA: B4 RNA with G25C, C27U, U30A, G31U
DNA 1: CAATCTGAATTCCGGTCTCCC
DNA 2: TGGTGGCTACGACGGGATT
B15: GGGCGAG (DNA:RNA)
RNA: B1 RNA with A25G, C26G, G28C, C30A, C31G
DNA 1: CAATCTGAATTCCGGTCTCCC
DNA 2: TGGTGGCTACGACGGGATT
B16: UACAGCU (DNA:RNA)
RNA: B1 RNA with A25U, C26A, G27C, G28A, C31U
DNA 1: CAATCTGAATTCCGGTCTCCC
DNA 2: TGGTGGCTACGACGGGATT
B17: UGACCAC (DNA:RNA)
RNA: B1 RNA with A25U, C26G, G27A, G28C, G29C, C30A
DNA 1: CAATCTGAATTCCGGTCTCCC
DNA 2: TGGTGGCTACGACGGGATT
B18: AUUUUCU (DNA:RNA)
RNA: B4 RNA with G25A, C27U, U30C, G31U
DNA 1: CAATCTGAATTCCGGTCTCCC
DNA 2: TGGTGGCTACGACGGGATT
B19: GUGACCG (DNA:RNA)
RNA: B4 RNA with C27G, U28A, U29C, U30C
DNA 1: CAATCTGAATTCCGGTCTCCC
DNA 2: TGGTGGCTACGACGGGATT
B20: AACUAGU (DNA:RNA)
RNA: B4 RNA with G25A, U26A, U29A, U30G, G31U
DNA 1: CAATCTGAATTCCGGTCTCCC
DNA 2: TGGTGGCTACGACGGGATT
B21: GGAUUGA (DNA:RNA)
RNA: B4 RNA with U26G, C27A, U30G, G31A
DNA 1: CAATCTGAATTCCGGTCTCCC
DNA 2: TGGTGGCTACGACGGGATT
B22: CAUGGAC (DNA:RNA)
RNA: B1 RNA with A25C, C26A, G27U, C30A
DNA 1: CAATCTGAATTCCGGTCTCCC
DNA 2: TGGTGGCTACGACGGGATT
B23: CCGUCAU (DNA:RNA)
RNA: B1 RNA with A25C, G28U, G29C, C30A, C31U
DNA 1: CAATCTGAATTCCGGTCTCCC
DNA 2: TGGTGGCTACGACGGGATT
B24: UAGGUUA (DNA:RNA)
RNA: B1 RNA with A25U, C26A, G29U, C30U, C31A
DNA 1: CAATCTGAATTCCGGTCTCCC
DNA 2: TGGTGGCTACGACGGGATT
B25: CACCUUU (DNA:RNA)
RNA: B4 RNA with G25C, U26A, U28C, G31U
DNA 1: CAATCTGAATTCCGGTCTCCC
DNA 2: TGGTGGCTACGACGGGATT
B26: GGAUCAG (DNA:RNA)
RNA: B4 RNA with U26G, C27A, U29C, U30A
DNA 1: CAATCTGAATTCCGGTCTCCC
DNA 2: TGGTGGCTACGACGGGATT
B27: AGGGGUA (DNA:RNA)
RNA: B1 RNA with C26G, C30U, C31A
DNA 1: CAATCTGAATTCCGGTCTCCC
DNA 2: TGGTGGCTACGACGGGATT
B28: UGUGACG (DNA:RNA)
RNA: B1 RNA with A25U, C26G, G27U, G29A, C31G
DNA 1: CAATCTGAATTCCGGTCTCCC
DNA 2: TGGTGGCTACGACGGGATT
B29: AGCACGA (DNA:RNA)
RNA: B1 RNA with C26G, G27C, G28A, G29C, C30G, C31A
DNA 1: CAATCTGAATTCCGGTCTCCC
DNA 2: TGGTGGCTACGACGGGATT
B30: GCGCCAA (DNA:RNA)
RNA: B1 RNA with A25G, G28C, G29C, C30A, C31A
DNA 1: CAATCTGAATTCCGGTCTCCC
DNA 2: TGGTGGCTACGACGGGATT
B31: GUAGUGU (DNA:RNA)
RNA: B4 RNA with C27A, U28G, U30G, G31U
DNA 1: CAATCTGAATTCCGGTCTCCC
DNA 2: TGGTGGCTACGACGGGATT

Each binder was assayed against T1, RBFOX1 RRM (Homo sapiens, UniProt Q9NWB1 109-208) (assay: EMSA; HiTS-Eq, 1 nM pool, 10 min; buffer printed only for the single-RNA assays: 10 mM Tris pH 7.5, 150 mM NaCl, 3.4 mM EDTA, 0.001% NP-40, 30 C). Conditions: tags: His6 N-terminal (pET28a); label: 5' 32P.
T1 sequence: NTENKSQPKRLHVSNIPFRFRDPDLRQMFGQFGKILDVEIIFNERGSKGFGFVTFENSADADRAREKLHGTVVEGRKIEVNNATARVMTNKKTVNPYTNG
Summary of the method: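 These values rest on relative association constants, computed from read-count changes of each RNA species versus the control reaction and normalised to the cognate motif. Reads came from free RNA recovered by 8% native PAGE after purified RbFox RRM (wild type or mutant) at increasing concentrations was equilibrated for 10 min in 50 µL with 1 nM of a 5′-radiolabelled pool with 7 randomized nucleotides and DNA-annealed flanks.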

Which binding signal does the source give for B1 here?
The binding signal was 0.0142 KA relative to UGCAUGU.

With B2 as the binder, how does the binding signal read?
The binding signal was 0.0209 KA relative to UGCAUGU.

Which binding signal does the source give for B3 here?
Its binding signal is 0.011 KA relative to UGCAUGU.

B4 was tested. Which binding signal did it give?
Its binding signal is 0.0215 KA relative to UGCAUGU.

How did the binding signal turn out when B5 was run?
The binding signal was 0.00848 KA relative to UGCAUGU.

For B6, which binding signal is on record?
Its binding signal is 0.00818 KA relative to UGCAUGU.

Which binding signal does the source give for B7 here?
Its binding signal is 0.0164 KA relative to UGCAUGU.

B8 was tested. Which binding signal did it give?
Its binding signal is 0.000696 KA relative to UGCAUGU.

How did the binding signal turn out when B9 was run?
Its binding signal is 0.015 KA relative to UGCAUGU.

Which binding signal does the source give for B10 here?
The binding signal was 0.00373 KA relative to UGCAUGU.

For B11, which binding signal is on record?
The binding signal was 0.00586 KA relative to UGCAUGU.

Which binding signal does the source give for B12 here?
Its binding signal is 0.0117 KA relative to UGCAUGU.

For B13, which binding signal is on record?
Its binding signal is 0.00437 KA relative to UGCAUGU.

B14 was tested. Which binding signal did it give?
Its binding signal is 0.0047 KA relative to UGCAUGU.

B15 was tested. Which binding signal did it give?
The binding signal was 0.0219 KA relative to UGCAUGU.

How did the binding signal turn out when B16 was run?
Its binding signal is 0.00395 KA relative to UGCAUGU.

Which binding signal does the source give for B17 here?
The binding signal was 0.00656 KA relative to UGCAUGU.

B18 was tested. Which binding signal did it give?
Its binding signal is 0.00886 KA relative to UGCAUGU.

How did the binding signal turn out when B19 was run?
Its binding signal is 0.0167 KA relative to UGCAUGU.

Which binding signal does the source give for B20 here?
Its binding signal is 0.0052 KA relative to UGCAUGU.

Which binding signal does the source give for B21 here?
Its binding signal is 0.0181 KA relative to UGCAUGU.

How did the binding signal turn out when B22 was run?
The binding signal was 0.00577 KA relative to UGCAUGU.

For B23, which binding signal is on record?
The binding signal was 0.00402 KA relative to UGCAUGU.

Which binding signal does the source give for B24 here?
Its binding signal is 0.0132 KA relative to UGCAUGU.

With B25 as the binder, how does the binding signal read?
Its binding signal is 0.00103 KA relative to UGCAUGU.

Which binding signal does the source give for B26 here?
Its binding signal is 0.0168 KA relative to UGCAUGU.

For B27, which binding signal is on record?
The binding signal was 0.0196 KA relative to UGCAUGU.

With B28 as the binder, how does the binding signal read?
The binding signal was 0.0115 KA relative to UGCAUGU.

How did the binding signal turn out when B29 was run?
The binding signal was 0.018 KA relative to UGCAUGU.

Which binding signal does the source give for B30 here?
Its binding signal is 0.00989 KA relative to UGCAUGU.

Which binding signal does the source give for B31 here?
The binding signal was 0.012 KA relative to UGCAUGU.
